The test system of the assay is 5:4:3 POPC/POPE/STG vesicles. The assay is described as follows: Calcein dye leakage assay, plant membrane mimic. To be noted: compared to KG18 and VR18 (Figure S12B). The protocol: […] LPS and peptides were dissolved in 10mM phosphate buffer (pH 7.4), filtered and degassed. LPS was titrated with increasing concentrations of the peptide solution, in a low-volume disposable cuvette.
The viscosity and refractive index of 10 mM phosphate buffer (pH 7.4) was set at 0.8924 and 1.330, respectively for data analysis. Autocorrelation data was used to generate the particle size distributions from the non-negative least squares fit algorithm provided in the instrument. Similar experiments were performed using LPS bicelles. DLS was performed in triplicates and three independent experimental sets were recorded. […]
NMR experiments were performed at 25 °C on a Bruker Avance III 500 MHz NMR spectrometer, equipped with a 5 mm SMART probe. […] The interaction of LPS with the peptides was monitored by 1D proton NMR spectra monitoring the line broadening effect LPS in the presence of increasing concentrations of peptides. […] 5 mM LPS alone and with increasing concentrations of peptides, with and without 0.1 mM MnCl2 as a paramagnetic quencher, were recorded with 1024 scans. […]
Passing the suspension through a mini extruder (Avanti Polar Lipids, Alabaster, AL) using stacked 100 nm pore size polycarbonate membrane filters 23 times generated large unilamellar vesicles (LUVs). […] Calcein leakage was monitored using Hitachi F-7000FL spectrophotometer (slit width: 2.5 nm). […]

Turning to Polymyxin B, the “perturbation of plant model membrane mimic by reference AMPs” value was “significant perturbation”.

The record behind these values is article PMC12906832, “Transgenic Tobacco Plants Expressing Synthetic Peptides: A Functional and Structural Analysis for Pathogen Resistance” (Plant Biotechnology Journal, 2025).
